Our source for the inhibition values is PubChem BioAssay AID485344 (National Center for Advancing Translational Sciences (NCATS), 2010).

About 6,900 (2%) of roughly 340,000 compounds were called active. No stated cut-off is given here; in the data, active means inhibition above about 30%; inactive means below that, where a call was filed. The entries are a selection whose mix differs from that of the whole data set. Where no call is shown, the source filed none.

The target in the assay is D(2) dopamine receptor (Homo sapiens) (UniProt P14416). The experiment in a line: HTS Assay for Allosteric Antagonists of the Human D2 Dopamine Receptor: Primary Screen for Antagonists. Further: 0% is about no effect. Conditions: HEK293 TREx D2 cells, calcium flux, dopamine EC80; at 10 µM; stronger effect = higher value. The essentials: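 Overnight-induced (tetracycline, 30 C) HEK293 T-REx cells carrying force-coupled D2 receive a no-wash calcium dye, then compound, then EC80 dopamine at 180 s; signals are read kinetically throughout.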
UniProt P14416, sequence (P14416 whole entry, looked up): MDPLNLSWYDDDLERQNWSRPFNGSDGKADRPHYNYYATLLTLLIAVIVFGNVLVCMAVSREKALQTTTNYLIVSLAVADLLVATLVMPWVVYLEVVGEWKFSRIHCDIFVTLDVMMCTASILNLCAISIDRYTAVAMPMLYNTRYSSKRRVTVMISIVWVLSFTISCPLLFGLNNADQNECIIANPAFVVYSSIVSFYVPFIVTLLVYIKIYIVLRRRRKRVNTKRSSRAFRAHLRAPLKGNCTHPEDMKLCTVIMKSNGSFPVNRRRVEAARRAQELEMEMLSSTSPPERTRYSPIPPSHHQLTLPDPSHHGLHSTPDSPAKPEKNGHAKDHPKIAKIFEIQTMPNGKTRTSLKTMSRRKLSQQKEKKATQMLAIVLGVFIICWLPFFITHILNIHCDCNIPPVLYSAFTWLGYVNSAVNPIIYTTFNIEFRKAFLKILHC
On the technique in general: A change in cytosolic calcium serves as a functional read-out for many receptors and channels.
For orientation: inhibition means the relative decrease from the control value, in per cent. Take `Cc1ccc(NC(=O)c2sc(-n3nc(C)c(Cc4ccc5c(c4)OCO5)c3C)nc2C)cc1C`: the inhibition was determined as 6.68%.
Under `CCC(C(=O)NCc1ccccc1Cl)n1nc(C)c2sc3ccccc3c2c1=O` (configuration not stated) stands 18%.
Under `CCOc1cc(C2c3c(-c4ccccc4O)n[nH]c3C(=O)N2Cc2cccnc2)ccc1O` (configuration not stated) stands 7.97%; under `Fc1ccc(Cn2c(-c3cccc(Br)c3)nc3ccccc32)cc1`, -26.8%.
Regarding `Cc1nn2c(C)c(C(=O)NCC(C)c3ccccc3)cnc2c1-c1ccccc1` (configuration not stated), the inhibition was found to be 2.28%.
On to `O=C(Nc1c2c(nn1-c1ccc(Cl)cc1)CS(=O)(=O)C2)c1ccccc1F`, for which the inhibition is -1.52%.
As to `COc1ccc(C2NC(=O)N(C)C3=C2C(=O)N(c2ccc(F)cc2)C3)cc1` (configuration not stated), the inhibition was -4.72%.
With `CCOC(=O)C1(CCc2ccccc2)CCN(C(=O)CN2CCOC2=O)CC1`, the inhibition is active: 37%.
With `COc1cccc(-c2noc(COc3ccccc3Cl)n2)c1`, the inhibition came out at 16.3%.
Then `Cc1ccc(Cl)cc1NC(=O)CSc1nc2ccccc2nc1Cc1ccccc1`, with 16.8%; and `Cc1cccc(N2CCN(S(=O)(=O)c3ccc4c(c3)CC(=O)N4C)CC2)c1C`, with 7.22%.
Then `COc1ccc(-c2onc(C)c2C)cc1S(=O)(=O)NCC1CCN(Cc2cc(C)ccc2C)CC1`, with 6.85%.
Under `COc1ccc(Cn2ccnc2SCC(=O)NCc2ccco2)cc1` stands -18.7%; under `CCN(CC)CCNC(=O)Cn1nc(C)c2c(C)n(-c3ccccc3)nc2c1=O`, -1.79%.
Turning to `COC(=O)c1ccccc1NC(=O)c1ccc2nc(CCc3ccccc3)oc2c1`, the inhibition was -22.5%.
In the case of `CCCCn1c(=NC(=O)c2cc3ccccc3o2)c(C(=O)OCC)cc2c(=O)n3ccccc3nc21`, the inhibition was -6.71%.
Then `COc1ccc2c(c1)C=C(CN1CCC(CO)(CCc3ccccc3)CC1)CO2`, with active: 31.5%; and `CCOc1ccc(-n2c(SCC(=O)NC3CCCCC3)nc3c([nH]c4ccccc43)c2=O)cc1`, with 13.4%.
Then `Cc1ccc(-n2c(=O)c3c(cnn3C)n(CC(=O)Nc3ccccc3C)c2=O)cc1`, with -8.71%; and `Cc1cccc(Cn2cc(S(=O)(=O)c3cccc(C)c3)c(=O)c3cc(F)c(N4CCOCC4)cc32)c1`, with -12%; and `COc1ccc2nc(C)cc(Nc3ccc(Cl)c(Cl)c3)c2c1`, with 6.86%.
Under `Cc1ccc(CNC(=O)CCCn2c(=O)[nH]c3ccc(Br)cc3c2=O)cc1` stands 3.2%; under `COc1ccc(Nc2ncnc3c2cnn3-c2ccc(C)cc2)cc1Cl`, -0.472%; under `CCC(=O)N1CCc2cc(Br)cc(S(=O)(=O)CCC(=O)NCc3cccc(OC)c3)c21`, -2.02%.
On to `Cc1ccc2nc(-c3cccc(NC(=O)c4cccc5ccccc45)c3)oc2c1`, for which the inhibition worked out at 7.81%.
Then `Cc1ccc(Cn2c(C(=O)O)c(CNC3CCCC3)c3ccc(C)cc32)cc1`, with -2.41%.
Then `Cc1ccc(OCc2ccc(-c3nc(C#N)c(NCc4ccccc4Cl)o3)o2)cc1`, with 5.53%; and `Cc1cc(C)cc(-n2c(SCC(N)=O)nc3c([nH]c4ccccc43)c2=O)c1`, with -19.5%; and `O=C(Nc1ccccc1C(F)(F)F)N1CCC(CN2CCc3ccccc3C2)CC1`, with -19.4%.
Under `O=C(NC1CC(=O)N(c2cccc(F)c2)C1)c1cc2ccccc2o1` (configuration not stated) stands 1.91%; under `O=C(NC(=O)c1ccccc1)Nc1ccccc1O`, active: 40%.
Regarding `COc1ccc(C)cc1NC(=O)C(Cc1ccccc1)NS(=O)(=O)c1cccs1` (configuration not stated), the inhibition amounted to 17.1%.
Then `COc1ccccc1Nc1nn2c(=O)c3ccc(C(=O)NCCC4=CCCCC4)cc3nc2s1`, with 3.3%; and `COc1cccc(CNC(=O)c2cnc(N3CCCCC3)c3ccccc23)c1`, with -28.5%; and `CN1c2ccc(Cl)cc2-c2nc(SCC(=O)NCc3ccccc3)ncc2S1(=O)=O`, with -13.8%.
Then `O=C(NCc1ccccc1F)C1CCN(c2nn3cc(-c4ccc(F)cc4)nc3s2)CC1`, with 0.928%; and `Cc1ccccc1CSc1nc2ccsc2c(=O)n1CCC(C)C`, with 5.58%.
Under `COc1ccccc1NC(=O)c1oc2ccccc2c1NC(=O)C1CCCCC1` stands -11.1%.
Turning to `CC1C(=O)N2CCCc3cc(S(=O)(=O)N4CCC(C(N)=O)CC4)cc1c32` (configuration not stated), the inhibition is -14.5%.
On to `Cc1ccc2cc(CN(C(=O)c3cccc(Cl)c3)c3ccccc3)c(=O)[nH]c2c1`, for which the inhibition is -13.2%.
Under `O=C(Nc1ccc(Cl)c(C(F)(F)F)c1)C1CCN(S(=O)(=O)c2cccc3nonc23)CC1` stands 17%; under `Cc1cccn2c(=O)c(C(=O)NCCc3ccc(S(N)(=O)=O)cc3)c(O)nc12`, 15.6%.
Then `CCCCn1c(NCc2ccc(N(C)C)cc2)nc2ccccc21`, with -17.4%; and `COc1ccc(CNC(=O)COCc2cc(-c3cccs3)on2)cc1`, with -6.74%; and `O=C(O)Cn1ccc2cc(S(=O)(=O)N3CCCCCC3)ccc21`, with -6.64%.
Then `COc1ccc(CNC(=O)Cn2c(=O)cc(-c3ccccc3)c3c(C)nn(C)c32)cc1`, with -3.3%.
Turning to `CCOc1ccccc1CNC(=O)c1cccn1-c1nnc(N2CCCC2)s1`, the inhibition is -5.14%.
As to `COc1ccc(S(=O)(=O)N(CC(=O)Nc2cccnc2)c2ccc(Cl)cc2)cc1`, the inhibition was -9.19%.
For `Clc1cccc(-n2ncc3c(NCCCn4ccnc4)ncnc32)c1`, the inhibition is -1.59%.
Then `Cc1cccc(N2CCN(C(=O)Cn3nc(Cc4cccnc4)c4ccccc4c3=O)CC2)c1C`, with -9.28%.
Under `COc1ccc(NC(=O)Cn2c(=O)ccc3cc(S(=O)(=O)N4CCCC4)ccc32)cc1Cl` stands -3.79%; under `CC(C)(C)c1ccc(-c2nc(SCC(=O)Nc3ccccc3F)n3[nH]c(=O)cc3n2)cc1`, -21.3%; under `CCc1ccc2oc(C(=O)Nc3ccccc3C(=O)OC)cc(=O)c2c1`, 2.8%.
Then `Cc1ccccc1NC(=O)c1c(C)oc2ccc(O)c(CN3CCN(C)CC3)c12`, with 4.91%; and `COc1ccc(-c2onc(C)c2C)cc1S(=O)(=O)NCC1CCN(Cc2cccc(F)c2)CC1`, with 18.3%.
As for `CC1=C(c2ccc(Cl)cc2)S(=O)(=O)N=C1N1CCC(C(=O)NCc2ccccc2F)CC1`, the inhibition stood at 1.08%.
Under `COc1ccc(CCNc2nc3c(-c4cccc(C)c4)nnn3c3ccccc23)cc1OC` stands -19.9%; under `COC1=C/C(=C/c2c(O)c(C#N)c3ccccn23)C=CC1=O`, active: 33.1%; under `Cc1ccc(-n2c(=O)c3c(c4cc(C)ccc4n3C)n(CC(=O)NCc3ccccc3)c2=O)cc1`, 3.59%.
Under `CCN1CCc2nc3sc(C(=O)c4ccc(F)cc4)c(N)c3cc2C1` stands 19%; under `COc1ccc(NC(=O)COC(=O)CCCOc2ccc(Cl)cc2Cl)cc1`, active: 39.7%.
Under `COc1ccccc1NC(=O)CSc1nc(-c2ccccc2F)nc2cc(=O)[nH]n12` stands -2.65%.
